Experimental data taken from the supplement of paper PMC3334620.
Over roughly 33,000 sequences, “E-score (-0.5 to 0.5)” has its median near -0.016; the highest 2% begin near 0.31. Some of the results follow.

Target: Cst6 (UniProt P40535)
Experiment: PBM E-score (8-mer binding enrichment) (E-score (-0.5 to 0.5)); higher = stronger / more preferred TF binding; most listed sequences are background and not binding sites
Conditions: protein concentration: 200 nM; construct: GST-DNA-binding domain
Procedure, shortened: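 E-scores (a modified Wilcoxon-Mann-Whitney statistic) were assigned by the Universal PBM Analysis Suite to every ungapped eight-base word pooled with its reverse complement. The input came from universal all-10-mer Agilent arrays made double-stranded by primer extension and probed with GST-tagged yeast transcription factors at about 100-200 nM. Fluorescent anti-GST detected bound protein, and masliner normalised the scans.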

First: ATTATGAG
Second: ATCCACAG
The “PBM E-score” value of the first is higher: 0.22 for the first, -0.0393 for the second.

First: AGTAGGGG
Second: AGTCTTCA
The “PBM E-score” value of the first is lower: -0.19 for the first, -0.0551 for the second.

First: AACGAGGC
Second: AAAGTTGT
The “PBM E-score” value of the first is lower: 0.104 for the first, 0.213 for the second.

Going from GATTGCCA to AACCAAAT, the “PBM E-score” value rises from -0.0693 to 0.0907.

Compared with CTGCGTTA, GCATGACA is higher in “PBM E-score” value: -0.204 for the first, 0.288 for the second.

First: ATAGACAT
Second: CTTCGGCC
The “PBM E-score” value of the first is lower: -0.124 for the first, -0.0647 for the second.

First: GGAGACCC
Second: GGGCAGAC
The “PBM E-score” value of the first is higher: -0.212 for the first, -0.221 for the second.

Going from CACCGGCC to CTCACTGA, the “PBM E-score” value rises from -0.202 to 0.105.

First: AATCGGCA
Second: CAAAAGAG
The “PBM E-score” value of the first is higher: 0.197 for the first, -0.0312 for the second.

Going from GGCAGTGA to AAAAGTTA, the “PBM E-score” value rises from 0.13 to 0.229.

Going from ACTTTCGA to GCGTACGC, the “PBM E-score” value falls from 0.0179 to -0.121.

Going from ATAACAAG to AAAGGTAA, the “PBM E-score” value falls from 0.208 to -0.0156.

Going from CCTACAGG to TCTTTCCA, the “PBM E-score” value rises from -0.294 to 0.0838.

First: CCAGCCCG
Second: CTCCGGAA
The “PBM E-score” value of the first is lower: -0.363 for the first, -0.272 for the second.

Going from GACTACGC to ACTATCCG, the “PBM E-score” value rises from -0.181 to 0.0433.

Going from ATATTTGG to CGATGGAC, the “PBM E-score” value falls from 0.223 to -0.0932.

First: AATTCAAC
Second: GGCCGCAC
The “PBM E-score” value of the first is higher: 0.183 for the first, 0.0605 for the second.

First: GATGTAAA
Second: TCGTAACA
The “PBM E-score” value of the first is higher: 0.236 for the first, 0.129 for the second.

First: AATCCCGT
Second: GGAAAAGA
The “PBM E-score” value of the first is higher: 0.127 for the first, 0.0532 for the second.

First: ATTACGGA
Second: AGGATCTA
The “PBM E-score” value of the first is higher: 0.154 for the first, -0.231 for the second.

Compared with CCCTTAGC, CGTTAAAC is higher in “PBM E-score” value: -0.274 for the first, 0.0283 for the second.

First: CACTAAAA
Second: TATGATCA
The “PBM E-score” value of the first is lower: 0.14 for the first, 0.207 for the second.

Going from AGAGGTAA to GATCCGAA, the “PBM E-score” value rises from -0.119 to -0.00888.

Going from ATGGAACA to AGGGAAAC, the “PBM E-score” value rises from -0.153 to -0.148.

Going from CCTATGGC to AAACGGTC, the “PBM E-score” value rises from -0.219 to 0.0592.

Compared with AGAATGGG, GGCCGAAA is higher in “PBM E-score” value: -0.159 for the first, 0.0221 for the second.

First: CTCCTTGC
Second: AACGAAGA
The “PBM E-score” value of the first is lower: -0.172 for the first, 0.0604 for the second.

First: AAGATCGG
Second: GCGGTAAC
The “PBM E-score” value of the first is lower: -0.154 for the first, 0.0406 for the second.

Compared with AAAACGTG, GCCGCGCA is higher in “PBM E-score” value: 0.0168 for the first, 0.226 for the second.

Compared with ACTCAGGA, ATGCCGAG is lower in “PBM E-score” value: 0.0346 for the first, -0.0097 for the second.

Going from CCGGCTCA to TGGTTACA, the “PBM E-score” value rises from -0.0972 to 0.0864.

Compared with ATACCTTC, ACCAGAAG is higher in “PBM E-score” value: -0.0872 for the first, 0.0353 for the second.

First: ACAGACTA
Second: GTAAATTA
The “PBM E-score” value of the first is lower: 0.00847 for the first, 0.202 for the second.

Going from CAGGCCGC to ACCTTCAG, the “PBM E-score” value rises from -0.119 to -0.0786.

Going from ATTCCAAT to AAGGCGCG, the “PBM E-score” value falls from 0.152 to 0.111.

Going from ATGCAATC to ATGGACTA, the “PBM E-score” value falls from 0.208 to -0.0656.

Going from CGTATGAA to CTTCTTTA, the “PBM E-score” value falls from 0.319 to 0.106.

Going from CACACGAA to AAACCCGC, the “PBM E-score” value falls from 0.161 to 0.00185.

Compared with CACCTTGG, ACGTGGGC is higher in “PBM E-score” value: -0.2 for the first, 0.049 for the second.

Compared with GCAGGCTA, CTGCCGGA is higher in “PBM E-score” value: -0.377 for the first, -0.089 for the second.

First: ATTTCCGG
Second: GTGTGGCA
The “PBM E-score” value of the first is lower: 0.00232 for the first, 0.0683 for the second.

Going from ATCTTCAG to AAATTGGT, the “PBM E-score” value rises from 0.13 to 0.186.

Going from AACCGAAT to ATCTGTCA, the “PBM E-score” value rises from 0.112 to 0.121.
